This note sets out measurements from paper PMC6212790.

The list shows a part of the results. At the low end of the ranking the order means little.

This assay deals with T1, GST-Rok (full length) (UniProt O34857).
T1 sequence: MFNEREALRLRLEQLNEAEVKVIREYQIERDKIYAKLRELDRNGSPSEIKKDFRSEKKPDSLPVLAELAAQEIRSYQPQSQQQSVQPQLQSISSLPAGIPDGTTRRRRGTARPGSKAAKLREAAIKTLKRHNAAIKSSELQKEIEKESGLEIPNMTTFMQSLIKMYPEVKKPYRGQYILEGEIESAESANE
Kind of assay: protein binding microarray.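 Further: rank score from −0.5 (least bound) to 0.5 (best bound).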 As to conditions: Rok is a gene silencer of Bacillus subtilis; high values mean tight binding; most listed sequences are background and not binding sites; double strand, one strand shown.
In the case of ACCTGCCC, the binding signal is -0.228 E-score.
Next, CCGACAGA: 0.0273 E-score; GTAGGTGA: 0.125 E-score.
Next, ATTATCAC: 0.192 E-score; CTTTGACA: 0.0623 E-score; GTGCGTGA: -0.0424 E-score.
As for AAGTAAAC, the figure is 0.123 E-score.
For the sequence AGTTCTGG, the binding signal is 0.103 E-score.
Next, CGAAAGTA: 0.27 E-score.
Sequence CATCTCGA returned a binding signal of -0.263 E-score.
In the case of GACAAGAA, the binding signal is -0.281 E-score.
As for GCTCACTA, the figure is 0.112 E-score.
Next, CAAAAGCC: -0.0574 E-score; GACTGCAC: -0.115 E-score; AAAAGAGG: -0.151 E-score.
Next, AGGCCACG: -0.142 E-score; CCAATAAG: 0.0378 E-score.
The sequence AGAAAGCG showed a binding signal of -0.0647 E-score.
The sequence ACAATGAT came in with a binding signal of 0.178 E-score.
As for GTTGACGA, the figure is -0.129 E-score; as for ACATATCT, 0.155 E-score; as for AAACCGTA, 0.0268 E-score.
For the sequence CATTCCCG, the binding signal is -0.0164 E-score.
Take AAGCGGCC: the binding signal is -0.263 E-score.
In the case of CGCAAACA, the binding signal was -0.121 E-score.
As for TCATTAGA, the figure is 0.101 E-score.
Next, CGCAGAGC: -0.187 E-score; ACCTTCCT: -0.19 E-score; ATCTTAGG: -0.0663 E-score.
With CGTCGGAC, the binding signal was -0.15 E-score.
Next, AGGGTTAC: -0.233 E-score; ATCCTCGA: -0.154 E-score.
As for AGTTCACG, the figure is 0.141 E-score.
Next, GAAGCACC: -0.296 E-score; ACGTAGAC: 0.0692 E-score.
The sequence ATAGGAGC showed a binding signal of -0.0454 E-score.
Turning to CGATAGGA, the binding signal was -0.0285 E-score.
Sequence AGGCGAAT showed a binding signal of 0.0368 E-score.
As for CACATTGG, the figure is 0.0247 E-score.
Next, AGTTGAAG: 0.171 E-score; GATGAGTA: 0.194 E-score.
For the sequence ACGACGGG, the binding signal was -0.308 E-score.
AATTACAC displayed a binding signal of 0.291 E-score.
Turning to ACAGTTCG, the binding signal was determined as 0.0489 E-score.
CTAATTAC yielded a binding signal of 0.329 E-score.
Consider GCCAACCC, for which the binding signal was -0.21 E-score.
Consider AAATGGGC, for which the binding signal was -0.113 E-score.
Next, AAAGACCA: -0.1 E-score; CGCAAGGC: -0.368 E-score; GAGATTAC: 0.224 E-score.
As for CCACTTAA, the figure is -0.00978 E-score.
As for GACCGGCC, the figure is -0.281 E-score; as for AAAGACGG, 0.129 E-score.
Sequence AGCGTCCA displayed a binding signal of 0.0504 E-score.
Turning to CAGTGCTA, the binding signal was -0.105 E-score.
As for AAACACCT, the figure is 0.0232 E-score; as for GTGGAGAA, 0.0755 E-score.
As for ATTTCTGA, the figure is 0.107 E-score.
In the case of GTATACCA, the binding signal amounted to 0.311 E-score.
Next, CGTTTCCA: -0.0727 E-score.
Next, TCCTTCGA: -0.154 E-score; CTACTATC: 0.323 E-score; CTTTTTCA: -0.00538 E-score.
AAGCCGTA showed a binding signal of 0.111 E-score.
As for GGAACTTA, the figure is -0.0263 E-score.
As for AGATATCT, the figure is 0.399 E-score.
GAGCCAGC gave a binding signal of -0.261 E-score.
Next, ACTTTTCT: 0.136 E-score; CACATAAC: 0.131 E-score; GAGTGTAC: -0.0692 E-score.
The sequence ACAATTTG gave a binding signal of 0.0563 E-score.
As for TACAATAA, the figure is 0.169 E-score; as for CTTCTTTC, 0.0125 E-score; as for AGAACACG, 0.07 E-score.
For CACATGTC, the binding signal was -0.187 E-score.
As for TGACAACA, the figure is 0.0107 E-score; as for ACACACAG, 0.143 E-score.
As for AAATTAAT, the figure is 0.286 E-score; as for GGGTCTTA, -0.128 E-score; as for ATTAGGTG, 0.129 E-score.
Sequence ACAGTCAG had a binding signal of -0.00727 E-score.
In turn, CGCGCTCA registered a binding signal of -0.141 E-score.
Next, GTTGCAAC: 0.244 E-score.
As for AACGCAAT, the figure is 0.239 E-score; as for CAAATCTC, 0.0513 E-score.
In turn, ATTTATTC showed a binding signal of 0.219 E-score.
Turning to ATATTCCC, the binding signal was determined as 0.15 E-score.
AGAAGGAT had a binding signal of -0.0393 E-score.
Sequence CGGTGTGA displayed a binding signal of -0.0243 E-score.
As for AGAGATTG, the figure is 0.109 E-score; as for GCTTACAA, -0.219 E-score; as for ACCGGGAG, -0.262 E-score.
As for ATTAAGGG, the figure is -0.1 E-score.
TCGACAGA showed a binding signal of -0.126 E-score.
Next, ACCGGACC: -0.0925 E-score.
For the sequence CGGCCGAC, the binding signal was -0.231 E-score.
GTCGCCAC showed a binding signal of -0.214 E-score.
For the sequence GTTTTGCA, the binding signal amounted to 0.0681 E-score.
Next, CCTGCTCA: -0.255 E-score; AGAGGATG: -0.0517 E-score; CATATGCC: -0.00343 E-score.
Next, ATTGTCCC: -0.301 E-score.
Next, ACACTAAT: 0.316 E-score.
CGGTTACG came in with a binding signal of -0.0301 E-score.
CGACCGAC displayed a binding signal of -0.259 E-score.
Next, CCAGCTTC: -0.249 E-score; GTGTTGGA: 0.0672 E-score.
As for AATGCCTA, the figure is -0.0482 E-score; as for GCAGCCAA, -0.136 E-score; as for ATTAGTTA, 0.311 E-score.
As for GTACGATA, the figure is 0.252 E-score.
Regarding CATGCGAG, the binding signal is -0.175 E-score.
Next, CATAGAGG: -0.0596 E-score; AACAAAAA: -0.019 E-score; GGAAAAAA: -0.0587 E-score.
As for CAGGTTAG, the figure is -0.184 E-score; as for CACAATAA, 0.26 E-score.
The sequence CACTGTCG showed a binding signal of -0.0512 E-score.
For GATAATAA, the binding signal worked out at 0.369 E-score.
As for AACCGACG, the figure is -0.112 E-score; as for CGCTGCTA, 0.116 E-score.
As for ACGACCGT, the figure is -0.00631 E-score.
Next, CCACCCCG: -0.345 E-score.
In turn, ATGAGTAG gave a binding signal of 0.316 E-score.
AGCATCTG returned a binding signal of -0.053 E-score.
On to CATAACCC, for which the binding signal was -0.169 E-score.
AACACCGG came in with a binding signal of -0.14 E-score.
As for GCTCGAGA, the figure is -0.0197 E-score; as for CTACCTGC, -0.07 E-score.
ACCGGCGC registered a binding signal of -0.232 E-score.
On to AAAGAGGC, for which the binding signal was -0.25 E-score.
With GATACCGA, the binding signal is 0.136 E-score.
On to AACGGGAA, for which the binding signal was 0.0903 E-score.
As for AACCTTAT, the figure is 0.0669 E-score.
Consider ATCACCTA, for which the binding signal turned out to be 0.102 E-score.
Next, ATAGATGC: 0.162 E-score.
The sequence ATCGTAGC returned a binding signal of 0.0116 E-score.
As for AAGATTCA, the figure is 0.126 E-score.
Sequence CCAGGGTA displayed a binding signal of -0.0603 E-score.
As for CTTAACCC, the figure is 0.0276 E-score; as for AATTGAAG, 0.209 E-score.
Sequence GCCCCGAC showed a binding signal of -0.352 E-score.
AATATTGC: the binding signal stood at 0.117 E-score.
In turn, GTGCATAA gave a binding signal of 0.166 E-score.
In the case of CATTGCAC, the binding signal stood at 0.141 E-score.
In the case of CGCTGCAA, the binding signal came to 0.0744 E-score.
Take CCTAGTAC: the binding signal turned out to be 0.125 E-score.
Consider AAAGAGTT, for which the binding signal amounted to 0.073 E-score.
As for ATCAGTCA, the binding signal was -0.0737 E-score.
Next, ACAGCCCA: -0.143 E-score.
As for AGGTAGCG, the figure is 0.22 E-score; as for AACCATTG, -0.045 E-score.
Next, CAGTGCAG: -0.211 E-score.
TAAAGGAA had a binding signal of -0.0673 E-score.
Next, CTTTGAAA: -0.0953 E-score.
As for CTACGGGC, the figure is -0.0326 E-score; as for CAAAAAGA, -0.0731 E-score.
Next, CGGCCGCA: -0.313 E-score; GAAAATGA: 0.0154 E-score.
Turning to CCTAACGC, the binding signal was -0.104 E-score.
Next, CAGACCCC: -0.473 E-score; AAACCAAG: -0.0743 E-score; GGGGTGCA: -0.195 E-score.
AATCTTGC: the binding signal came out at 0.0665 E-score.
As for AGCGGTGG, the figure is -0.157 E-score; as for AGCAATAT, 0.284 E-score; as for ATGCCGAC, -0.0736 E-score.
As for ACCTTCCC, the figure is -0.261 E-score; as for ATGAGCTC, -0.222 E-score; as for ACCGTAGG, -0.168 E-score.
Consider GATGTGCA, for which the binding signal was determined as 0.00441 E-score.
As for AGCCAGTA, the figure is -0.153 E-score.
